# Experimental data as given in PMC4336329 (PLoS ONE, 2015).
# Screen size: about 310,000 compounds; about 14,000 (4.5%) showed an effect of 50% or more. The effect is printed as a negative number. The list shows a part of the results.
# Target: human ether-à-go-go-related gene (hERG) potassium channel (human, UniProt Q12809)
# Test: primary screen, population patch clamp on CHO cells stably expressing hERG
# 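Note: peak tail current of the secondary pulse compared with the same well before compound.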
# human ether-à-go-go-related gene (hERG) potassium channel, sequence (Q12809 whole entry, looked up): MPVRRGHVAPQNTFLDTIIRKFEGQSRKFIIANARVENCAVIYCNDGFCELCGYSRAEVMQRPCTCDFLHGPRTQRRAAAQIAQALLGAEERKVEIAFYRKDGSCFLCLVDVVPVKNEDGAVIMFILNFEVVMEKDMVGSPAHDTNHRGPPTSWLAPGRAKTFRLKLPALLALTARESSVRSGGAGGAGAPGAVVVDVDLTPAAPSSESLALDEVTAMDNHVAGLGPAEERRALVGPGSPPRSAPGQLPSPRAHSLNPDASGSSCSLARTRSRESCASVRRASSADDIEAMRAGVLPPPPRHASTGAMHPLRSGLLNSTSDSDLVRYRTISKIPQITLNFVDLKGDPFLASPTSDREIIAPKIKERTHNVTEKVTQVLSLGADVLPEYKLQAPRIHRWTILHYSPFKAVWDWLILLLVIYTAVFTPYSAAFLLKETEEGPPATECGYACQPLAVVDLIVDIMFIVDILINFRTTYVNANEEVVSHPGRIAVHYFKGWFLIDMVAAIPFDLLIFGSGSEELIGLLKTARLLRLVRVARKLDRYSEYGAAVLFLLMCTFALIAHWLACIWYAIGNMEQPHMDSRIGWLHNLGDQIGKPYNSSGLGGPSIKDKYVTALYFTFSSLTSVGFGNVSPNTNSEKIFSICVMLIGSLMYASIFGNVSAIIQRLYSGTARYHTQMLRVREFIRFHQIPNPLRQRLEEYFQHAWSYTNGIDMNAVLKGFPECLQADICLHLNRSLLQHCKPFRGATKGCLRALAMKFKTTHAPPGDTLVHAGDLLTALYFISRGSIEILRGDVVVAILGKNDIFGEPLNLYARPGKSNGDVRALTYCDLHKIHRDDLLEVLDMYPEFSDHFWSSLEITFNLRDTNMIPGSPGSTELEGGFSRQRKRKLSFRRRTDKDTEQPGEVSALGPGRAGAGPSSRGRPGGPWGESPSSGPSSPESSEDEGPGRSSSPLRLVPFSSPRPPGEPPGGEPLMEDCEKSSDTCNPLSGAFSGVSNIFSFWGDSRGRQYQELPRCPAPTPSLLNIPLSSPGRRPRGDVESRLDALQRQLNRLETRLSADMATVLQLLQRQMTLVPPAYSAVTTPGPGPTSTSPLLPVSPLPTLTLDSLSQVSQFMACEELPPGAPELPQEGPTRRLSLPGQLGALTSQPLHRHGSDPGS
row,Structure (SMILES),"hERG current change (%, negative = inhibition) at 10uM [%]"
1,COc1ccc(C=O)cc1Cn1ccnc1C.Cl,33.4
2,O=C(NCc1ccc(Cl)s1)c1cc(COc2c(F)cccc2F)on1,5.08
3,CN(C(=O)COC(=O)c1ccccc1C(=O)N1CCN(c2ccccc2)CC1)c1ccccc1,-17
4,CCCCOc1ccc(CON(C(C)=O)C(C)=O)cc1Cl,4.67
5,CC(=O)NC(=S)Nc1cccc([N+](=O)[O-])c1,-2.27
6,CCCCn1nc2cc(C(=O)NCc3ccc(OC)cc3)ccc2c1OCC,-12.3
7,C=CCc1cccc(CNc2nc3ccccc3n2C)c1O,7.54
8,Cc1ccc2c(c1)c1ncnc(N3CCN(c4ccccc4)CC3)c1n2C,-12.3
9,COc1cc([C@H]2c3c(cc(OC)c(O)c3OC)C[C@@H](CO)[C@@H]2CO[C@@H]2O[C@H](CO)[C@@H](O)[C@H](O)[C@H]2O)cc(OC)c1O,-16.9
10,Cc1cccc(NC(=O)CCCn2cc([N+](=O)[O-])cn2)n1,-11.1
11,Cl.N=c1sccn1CC(=O)Nc1cccc2ccccc12,2.9
12,COCCN(CCOC)S(=O)(=O)c1ccc(C(=O)Nc2nnc(COC)o2)cc1,18.3
13,O=C(CC1CCCCC1)NCc1ccccn1,2.73
14,COc1cccc(N(CC(=O)NCCSCc2ccc(Cl)cc2)S(C)(=O)=O)c1,2.15
15,CC(C)(C)NC(=O)CCc1nnc(Cc2c[nH]c3ccccc23)o1,1.86
16,Cc1ccc(NC(=O)C(=O)NCC2CCCN2S(=O)(=O)c2cccs2)c(C)c1 (stereo not shown),-26.9
17,Cc1cc(NC(=O)CSc2nc3c(C)ccc(C)c3cc2C#N)no1,15.9
18,CCN(C(=O)CSc1nnnn1-c1ccccc1)C1CCS(=O)(=O)C1 (stereo not shown),-0.858
19,O=C1CN(C(=O)COC(=O)C2CCN(S(=O)(=O)c3ccccc3C(F)(F)F)CC2)c2ccccc2N1,-23.2
20,COc1ccc(S(=O)(=O)N2CCCC(C(=O)NCc3cccnc3)C2)cc1 (stereo not shown),-18.3
21,COc1ccc(CCNC(=O)CCNC(=O)c2ccco2)cc1,2.58
22,Cc1ccccc1OCCC(=O)N(CC(C)C)c1c(N)n(Cc2ccccc2)c(=O)[nH]c1=O,-64.4

row,Structure (SMILES),"hERG current change (%, negative = inhibition) at 10uM [%]"
1,CCN1CCN(c2nc(C)c3c(n2)CC(C)CC3=O)CC1 (stereo not shown),12.8
2,O=C(NCc1ccco1)c1cc([N+](=O)[O-])ccc1N1CCOCC1,-25.4
3,CCc1cc2ccc(C)cc2nc1SCC(=O)Nc1c[nH]c(=O)[nH]c1=O,17.1
4,CC1(c2nnc(Cc3ccccc3)o2)CC(c2ccc(Br)cc2)=NO1 (stereo not shown),10.1
5,CC(C)NS(=O)(=O)c1ccc(OCC(=O)N(C)Cc2ccccc2)cc1,-9.49
6,CCOc1ccc(NC(=O)CN(C)C(=O)C(C)N2C(=O)c3ccccc3C2=O)cc1OCC (stereo not shown),-15.9
7,C/C(CC(=O)NC12CC3CC(CC(C3)C1)C2)=N\NC(=O)c1cnccn1,11.9
8,COS(=O)(=O)[O-].Cn1c(-c2ccc3ccccc3n2)[n+](C)c2ccccc21,6.5
9,CN(C)c1ccc(/C=C/c2nnnn2-c2ccccc2)cc1,-1.34
10,COc1ccc(OCC(=O)NCCC2=CCCCC2)c([N+](=O)[O-])c1,-10.7
11,CC(C)Cc1nc(N2CCOCC2)c(C#N)c2c1CCC2,-2.57
12,CC(C)NC(=O)NC(=O)CN1C(=O)NC(Cc2c[nH]c3ccccc23)C1=O (stereo not shown),31.3
13,NC(=O)[C@@H]1CCCNc2c(F)cc([N+](=O)[O-])cc2C(=O)N[C@@H](CO)C(=O)N[C@@H](Cc2ccc(O)cc2)C(=O)N1,-3.66
14,Cc1ccccc1-c1nnc(SCC(=O)NC2CCCC2)o1,-6.58
15,COc1ccc(NC(=O)CN(C)C(=O)c2cccc(Oc3ccccc3)c2)cc1,-18.4
16,Cc1ccc(-c2nc3cnccn3c2Nc2ccc3c(c2)OCCO3)o1,-23.8
17,COc1ccc2nnc(-c3ccccc3)n2n1,-20.4
18,CC(=O)Nc1ccc(/C=N/N2CCCCC2)cc1,16.5
19,CC(c1ccccc1)C1NC(C(=O)O)CS1 (stereo not shown),-17.3
20,NCCCCCc1nnc(SCC(=O)c2ccc(Cl)cc2)o1,-14.5
21,O=C(NCc1cccnc1)c1ccc(COc2ccccc2Cl)cc1,4.47
